Test results as given in PubChem BioAssay AID1240 (Sanford-Burnham Center for Chemical Genomics, 2008).
About 800 (1.6%) of roughly 50,000 compounds showed an effect of 50% or more. The list shows a part of the results.

Target: Bcl-2-like protein 10 (Homo sapiens) (UniProt Q9HD36)
Assay: Phenotype converters, Bcl-B/TR3 peptide binding displacement, primary biochemical FP (AID 1240);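 further: 0% = Bcl-B with tracer peptide and DMSO and 100% = tracer peptide lacking Bcl-B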
Conditions: GST-Bcl-B / FITC-TR3 peptide fluorescence polarization; stronger effect = higher value; compound at 3.75 mg/L

Chain of UniProt Q9HD36 (Q9HD36 whole entry, looked up): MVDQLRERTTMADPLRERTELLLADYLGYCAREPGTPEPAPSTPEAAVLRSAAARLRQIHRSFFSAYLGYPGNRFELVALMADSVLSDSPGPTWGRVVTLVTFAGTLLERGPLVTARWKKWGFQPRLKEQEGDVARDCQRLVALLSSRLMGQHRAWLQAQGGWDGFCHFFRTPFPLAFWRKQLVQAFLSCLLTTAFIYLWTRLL

| Compound | displacement [%] |
| --- | --- |
| COc1cc(/C=C2\SC(=S)N(c3cccc(Cl)c3)C2=O)ccc1O | -10 |
| COC(=O)c1cc(NC(=O)CCc2ccccc2)cc(C(=O)OC)c1 | 16.8 |
| Cc1cc(/C=C2\NC(=S)NC2=O)c(C)n1-c1cccc([N+](=O)[O-])c1 | 13.6 |
| CCNC(=O)C(=O)Nc1ccc(OC)c(Cl)c1 | 1.9 |
| Cc1ccc(N=C2NC(=O)/C(=C/c3ccc(F)cc3)S2)cc1Cl | -6.4 |
| COc1cc(C=NN2CCN(Cc3ccc(C)cc3C)CC2)cc(OC)c1OC | -6.5 |
| O=C1NC(=Nc2cccc(Cl)c2Cl)S/C1=C\c1ccc([N+](=O)[O-])cc1 | -105 |
| COc1ccccc1N1C(=O)c2ccc3c4c(ccc(c24)C1=O)CC3 | 13.4 |
| Cc1ccc(OCC(=O)N/N=C/c2c(C)[nH]n(-c3ccccc3)c2=O)cc1 | 13.1 |
| COc1cccc(C2NC(=S)NC(C)=C2C(=O)Nc2ccc(C)cc2)c1 (stereo not given) | -16.6 |
| COc1ccc(-c2n[nH]c(=S)n2/N=C/c2cccs2)cc1 | -16.6 |
| Cc1cccc(NC(=O)c2cc3cc(Br)ccc3oc2=O)c1 | 5.9 |
| O=C(Nc1ccc(O)c(-c2nc3ccccc3s2)c1)c1ccc2c(c1)OCCO2 | 82.5 |
| Cc1cc(C)nc(NS(=O)(=O)c2ccc(NC(=O)c3ccc(S(=O)(=O)N4CCOCC4)cc3)cc2)n1 | 4.1 |
| CC1=NN(C(=O)c2ccc(Cl)cc2)C(O)(c2ccccc2)C1 (stereo not given) | 5.8 |
| Cc1ccc(C2=CC(=O)N(c3cccc(C(F)(F)F)c3)C2=O)cc1 | 5.3 |
| Cc1c(C(c2ccc(C(=O)O)cc2)c2c(C)n(C)n(-c3ccccc3)c2=O)c(=O)n(-c2ccccc2)n1C | -9.1 |
| COC(=O)c1c(NC(=O)Cc2ccccc2)sc2c1C(C(=O)OC)CC2 (stereo not given) | -14.8 |
| COc1ccc(S(=O)(=O)Nc2cc(C)ccc2C)cc1OC | 1.2 |
| O=C(Nc1ccc(OCc2ccccc2)cc1)c1ccc(Cl)c([N+](=O)[O-])c1 | -0.2 |
| CCOC(=O)C1=C(C)N=c2s/c(=C\c3ccc([N+](=O)[O-])cc3)c(=O)n2C1c1ccccc1 (stereo not given) | 12.9 |
| Cc1ccccc1OCC(=O)Nc1cccc(I)c1 | -2.4 |

| Compound | displacement [%] |
| --- | --- |
| CCOc1ccc(/C=C2\N=C(c3ccccc3Br)OC2=O)cc1 | -2.1 |
| CCOC(=O)C1=NNC2C(=O)N(c3ccc(C)cc3C)C(=O)C12 (stereo not given) | -14.6 |
| COc1ccc(CN2CCN(C(=O)c3ccc(-c4ccccc4)cc3)CC2)cc1OC | -7.9 |
| O=C(O)CCCCCN1C(=O)C(=O)/C(=C(\O)c2ccc(Br)cc2)C1c1cccc(F)c1 (stereo not given) | -11.8 |
| COc1ccc2c(c1)OCC/C2=N\OC(=O)c1ccc(Oc2ccccc2)cc1 | -10.3 |
| COC(=O)c1cc(S(=O)(=O)N2CCOCC2)ccc1Cl | -4.1 |
| Cc1ccc(OCc2nc(-c3ccc(Cl)cc3)no2)c(Br)c1 | 12.8 |
| COc1ccc(/C=N/NC(=O)COc2ccc3c(C)cc(=O)oc3c2)cc1 | 14.7 |
| CCOC(=O)CSc1nc2cc(OCC)ccc2n1C | -6 |
| COc1ccc(-c2nn(CN3CCOCC3)c(=S)o2)cc1 | -10.4 |
| Cc1ccc2oc(C(=O)Nc3ccc(N4CCOCC4)c(Cl)c3)c(C)c2c1 | -4 |
| CCOc1ccc(C(=O)Nc2ccc3ccccc3c2)cc1[N+](=O)[O-] | 13.2 |
| Cc1cccc(NC(=O)CCC(=O)N/N=C/c2ccncc2)c1 | 0.1 |
| CC12CC(O)C3(F)C(CCC4=CC(=O)C=CC43C)C1CC=C2C(=O)CO (stereo not given) | -14.9 |
| O=C(NCc1ccco1)Nc1ccncc1 | 4.5 |
| COc1cc(OC)cc(C(=O)N2CCN(Cc3cccc4ccccc34)CC2)c1 | 5.2 |
| Cc1ccc2c(nc3s/c(=C\c4cccc(Cl)c4Cl)c(=O)n32)c1C | -9.5 |
| CCOC(=O)c1c(C)oc2ccc(NS(=O)(=O)c3cc(Cl)ccc3Cl)cc12 | 5.9 |
| Cc1cccc(NC(=O)CCCOc2ccccc2)c1 | -6.4 |
| COc1ccc(-c2nnc(NC(=O)CCc3ccccc3)s2)cc1OC | 6 |
| Cc1cc(NC(=O)COC(=O)/C=C/c2ccc([N+](=O)[O-])cc2)no1 | 17.2 |
| Cc1ccc(C(=O)NC(NC(=S)Nc2cccc3ccccc23)C(Cl)(Cl)Cl)cc1 (stereo not given) | 54.9 |

| Compound | displacement [%] |
| --- | --- |
| NC(=O)c1ccc[n+](CC(=O)c2cc3ccccc3oc2=O)c1 | 0 |
| COc1ccc(C2/C(=C(/O)c3ccc(C)cc3)C(=O)C(=O)N2CCCCCC(=O)O)cc1OC (stereo not given) | -12.3 |
| O=C(O)CC(NC(=O)Cc1ccccc1)c1ccccc1 (stereo not given) | 6.2 |
| N#CC1=C(SCC(=O)Nc2ccccc2)NC(=O)CC1c1ccc(F)cc1 (stereo not given) | 1.4 |
| COc1ccccc1N(CC(=O)NCc1ccncc1)S(=O)(=O)c1ccccc1 | 4.9 |
| O=C(Nc1nnc(-c2ccccc2)s1)c1ccc(Cl)cc1Cl | 16.3 |
| Nc1ccc(S(=O)(=O)O)c2cccc(S(=O)(=O)O)c12 | 7.8 |
| Cc1cc(C=C2C(=O)NC(=S)NC2=O)c(C)n1-c1cccc(Cl)c1 | 107 |
| CC(C)(C)N1C(=O)c2ccc(C(=O)Nc3cccc(O)c3)cc2C1=O | 13.1 |
| COc1cc(CNc2ccc(C)c(C)c2)cc(OC)c1OC | 15.1 |
| COc1ccc(/C=C/C(=O)Nc2ccc(NC3CCCCC3)c3c2C(=O)c2ccccc2C3=O)cc1 | 10.5 |
| COCCNC(=O)/C(=C/c1ccco1)NC(=O)c1ccc(OC)cc1 | 22.2 |
| C=CCOc1c(Cl)cc(/C=C2/C(=O)NN(c3ccc(C)c(C)c3)C2=O)cc1OC | -0.5 |
| CCS(=O)(=O)Nc1ccc(Cc2ccncc2)cc1 | 1.2 |
| CCOC(=O)CSc1cc(C)nc2ccc(C)cc12 | 1.4 |
| O=C(Nc1ccc(Br)cn1)Nc1ccccc1Cl | -3.3 |
| CCOc1ccc(C=C2C(=O)NC(=S)NC2=O)cc1Cl | 4 |
| Cc1ccc(C(=O)N2CCN(C(=O)CN3CCOCC3)C2)cc1 | -1.7 |
| COc1cc(/C=C(/C#N)c2nc3ccccc3[nH]2)c([N+](=O)[O-])cc1OCCC(C)C | 69.6 |
| O=C(Nc1nnc(C23CC4CC(CC(C4)C2)C3)s1)c1cccs1 | 6.6 |
| CC(C)Cc1nn2c(=O)cc(O)nc2s1 | -4.2 |
| CC(C)CNC(=O)C(=O)Nc1ccc(Oc2ccccc2)cc1 | 5.2 |

| Compound | displacement [%] |
| --- | --- |
| CC(C)(C)c1cc(N2C(=O)C(=O)/C(=C(\O)c3ccccc3)C2c2ccc(Br)cc2)no1 (stereo not given) | -9.5 |
| CC1C2CC(CC1(C)C)N(C(=O)Nc1ccc3nccnc3c1)C2 (stereo not given) | 5.2 |
| Cc1ccc(N2C(=O)CC(N3CCCN(C)CC3)C2=O)cc1 (stereo not given) | 8.1 |
| C1=C=CC(OCCOc2ccc(/C=N/n3cnnc3)cc2)=CC=1 | 3.7 |
| Cc1ccc2nc(-c3ccc(N)cc3)cc(-c3ccccc3)c2c1 | 15.5 |
| O=C1CC(N=Cc2cccc(O)c2)=NN1c1ccccc1 | 11.2 |
| Cc1c(C(=O)NCC#N)cccc1[N+](=O)[O-] | -3.3 |
| CCc1cc(=O)oc2c(C)c(OC(C)=O)ccc12 | -9 |
| COc1ccc(CCNC(=O)C(=O)Nc2ccc(C)cc2)cc1 | -14.1 |
| O=C(CC1Nc2ccccc2NC1=O)c1ccccc1 (stereo not given) | 7.3 |
| C/C(=N\Nc1nc(-c2ccc(C)cc2)nc2ccccc12)c1cccc([N+](=O)[O-])c1 | 10.5 |
| O=C(NCCc1ccc(F)cc1)C(=O)NCC1CCCO1 (stereo not given) | 7.9 |
| O=CN1CCN(c2nc(-c3ccccc3)c3cc(Br)ccc3n2)CC1 | 84.9 |
| Cc1ccc(NC(=O)C2CC=CCC2C(=O)O)c(C)c1 (stereo not given) | 24.9 |
| COc1cc2ccccc2cc1C(=O)Nc1ccccc1C | -10.2 |
| COc1ccc(/C=C2\C(=O)N(c3cccc(C(=O)O)c3)N=C2C)cc1OC | 2.4 |
| O=C(Nc1ccc2c(c1)OCCO2)C(Sc1ccccc1)c1ccccc1 (stereo not given) | 6.1 |
| Cc1ccc(C(=O)NCCCNc2ccc([N+](=O)[O-])cc2)cc1 | 11.9 |
| O=C(/C=C/c1ccc(-c2ccccc2[N+](=O)[O-])o1)c1ccc(Cl)cc1 | 16.4 |
| CC(C)OC(=O)c1c(-c2ccc(Br)cc2)csc1NC(=O)C1C2CCC(C2)C1C(=O)O (stereo not given) | -2.4 |
| Cc1cc(Cl)ccc1OCC(=O)NCCCN1CCOCC1 | -0.6 |
| COc1ccc2c(c1)nc(SCc1ccccc1)n2C | -1.6 |

| Compound | displacement [%] |
| --- | --- |
| CCOC(=O)COc1c(C)cccc1C | 16.9 |
| Cc1ccc(-n2nc3ccc(NC(=O)c4ccco4)cc3n2)cc1 | 49.3 |
| O=C(Cc1ccccc1)Nc1nnc(COc2ccccc2)s1 | -4.7 |
| COc1ccc(S(=O)(=O)NNC(=O)c2ccc([N+](=O)[O-])cc2)cc1 | 0.4 |
| Oc1oc(-c2ccccc2)nc1C=Nc1ccc(Cl)c2cccnc12 | 36 |
| O=C(NCCc1ccc(F)cc1)C1CC(=O)N(c2ccccc2)C1 (stereo not given) | -4.1 |
| COc1cccc(NC(=O)C2c3ccccc3Oc3ccccc32)c1 | 5.8 |
| O=c1/c(=C/c2ccc(Cl)cc2)sc2nc3cc(Br)cnc3n12 | -4.9 |
| O=C(NC(=S)Nc1cc([N+](=O)[O-])ccc1Cl)c1ccc(Cl)cc1 | 0.9 |
| O=C(O)CCCC(=O)Nc1cccc(C(=O)O)c1 | -9.8 |
| COc1cccc(N(CC(=O)Nc2ccc(C)cc2)S(=O)(=O)c2ccccc2)c1 | 8.4 |
| O=C(N/N=C\c1ccccc1Cl)c1cncc(Br)c1 | 3.6 |
| Cc1cc2c(cc1C)CSC(c1cccc([N+](=O)[O-])c1)SC2 | 3.9 |
| CCN1C(=O)/C(=C\c2ccc(Cl)c([N+](=O)[O-])c2)SC1=S | 12.3 |
| O=C(CN(c1cccc(Br)c1)S(=O)(=O)c1ccccc1)Nc1ccccc1 | 2 |
| Cc1ccc(N2CC(C(=O)Nc3cccc(C)n3)CC2=O)cc1 (stereo not given) | -12.8 |
| CC(C)CNC(=O)c1nn2c(c1Cl)NC(c1cccs1)CC2C(F)(F)F (stereo not given) | 1.6 |
| CCC(=O)Nc1ccc(NC(=O)c2cc(Cl)ccc2OC)cc1 | 4.5 |
| COc1ccc(/C=N\NC(=O)CNc2ccccc2C)cc1Cl | 13.6 |
| COCCN1C(=O)/C(=C\c2ccc(-c3ccc(Br)cc3)o2)SC1=S | 11.4 |
| CC1CN(c2ccc([N+](=O)[O-])cc2)CCN1S(=O)(=O)c1ccccc1 (stereo not given) | 10.7 |
| O=C(CSc1nc2ccccc2o1)OCC(=O)c1ccc(F)cc1 | 16.9 |
